# Experimental data published in PubChem BioAssay AID1508624 (National Center for Advancing Translational Sciences (NCATS), 2021).
# “And” between values parts separate entries of the source, which are not always exact repeats. Equal entries are not always repeated. Hit rate of the full screen: of about 48,000 compounds, about 120 (0.25%) were called active. Inconclusive results (about 4%) are left out. The call rests on the fitted dose curve; in most records, active means well fitted activation curve with a large enough effect; inconclusive means small, poorly fitted or top-dose-only effect, or another doubt; inactive means no such curve, though single readings can be large or run the other way. The list shows a part of the results.
# Experiment: Primary qHTS for Identification of Small Molecule Activators of Huntingtin-Antisense Promoter Activity; further: nearly all actives have a fitted effect of over 55% in size
# Conditions: HEK293 HTT-AS promoter firefly luciferase reporter, 24 h
# In short: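 HEK293 cells carrying firefly luciferase reporters were seeded at 2,500 per well in Opti-MEM and cultured for 24 h. They were then treated with compounds at up to 57.5 uM final for 24 h at 37 degrees C before Dual-Glo luminescence readout.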
# [1] = at 57.5 µM (top of the series) unless noted
smiles,measurement,setting,value
O=[N+]([O-])c1ccc([As](=O)(O)O)cc1,"activity change, positive = activation",[1],inactive: -0.897%
CN(C)NC(=O)CCC(=O)O,"activity change, positive = activation",[1],inactive: -18.2%
CCc1ccc(-n2nc(C)c3c2NC(=O)CSC3c2ccc(C(=O)OC)cc2)cc1 (stereo not given),"activity change, positive = activation",[1],inactive: -37.3%
COc1ccccc1-c1nn2c(=O)cc(CN3CCN(C(=O)COc4ccccc4Cl)CC3)nc2s1,"activity change, positive = activation",[1],"inactive: -11.8% [at 57.5 µM, percent change from vehicle, -100% = no light]"
COc1cc(C[C@@H](C)N)c(OC)cc1Br,"activity change, positive = activation",[1],inactive: -13.9% [at 116 µM]
CC(C)Oc1cccc(NC(=O)c2ccccc2C(F)(F)F)c1,"activity change, positive = activation",[1],"inactive: -13.3% [at 116 µM, percent change from vehicle, -100% = no light]"
CCC12CN3CC(CC)(CN(C1)C3c1c(C)[nH]c(=O)[nH]c1=O)C2=O (stereo not given),"activity change, positive = activation",[1],inactive: 6.01%
COc1cc(OC)cc(C(=O)Nc2ccc(Cl)cc2C(=O)c2ccccc2Cl)c1,"activity change, positive = activation",[1],inactive: 20.6%
C1CCC(NC2CCCCC2)CC1,"activity change, positive = activation",[1],inactive: -6.97%
CCC1(c2cccc(O)c2)CCCCN(C)C1 (stereo not given),"activity change, positive = activation",[1],inactive: -12.3%
C[C@@H]1CC[C@H]2[C@@H](C)C(=O)O[C@@H]3O[C@@]4(C)CC[C@@H]1[C@]32OO4,"activity change, positive = activation",[1],inactive: -20.7%
CCN(CC)C(=O)[C@@H]1C=C2c3cccc4[nH]cc(c34)C[C@H]2N(C)C1,"activity change, positive = activation",[1],inactive: -20.9% [at 222 µM]
O=c1c2ccccc2nc(/C=C/c2cccc3ccccc23)n1-c1ccc(Cl)cc1,"activity change, positive = activation",[1],"inactive: -17.6% [at 57.5 µM, percent change from vehicle, -100% = no light]"
CC(=O)OCC1=C(C(=O)O)N2C(=O)[C@@H](N)[C@@H]2SC1,"activity change, positive = activation",[1],inactive: -4.35%
C#C[C@]1(O)C=C[C@H]2[C@@H]3CCC4=CC(=O)CC[C@@H]4[C@H]3CC[C@@]21CC,"activity change, positive = activation",[1],inactive: -21.6%
Cc1cc(C)cc(NC(=O)CN2C(=O)CN=C(c3ccccc3)c3cc(Cl)ccc32)c1,"activity change, positive = activation",[1],inactive: -29.1%
COc1ccc2c(c1)CN(C)CC2c1ccc(Cl)c(Cl)c1 (stereo not given),"activity change, positive = activation",[1],inactive: -15.1%
Sc1ccccc1Cl,"activity change, positive = activation",[1],inactive: -10.3%
O=C(COc1ccc(Br)cc1)Nc1ccc(Cl)cc1C(=O)c1ccccc1,"activity change, positive = activation",[1],"inactive: -6.35% [at 57.5 µM, percent change from vehicle, -100% = no light]"
CC(C)(C)NCC(O)c1ccccc1Cl (stereo not given),"activity change, positive = activation",[1],inactive: -8.92%
Oc1ccc([C@H]2CNCc3c2ccc(O)c3O)cc1O,"activity change, positive = activation",[1],inactive: -8.42%
C1=C2CCCN[C@H]2[C@@H]2C[C@H]1[C@@H]1CCCCN1C2,"activity change, positive = activation",[1],inactive: -6.03%
CC(C)C[C@H](CN)CC(=O)O,"activity change, positive = activation",[1],inactive: -2.11%
CN(C)C(=S)SSC(=S)N(C)C,"activity change, positive = activation",[1],inactive: -43.5%
Cc1ccc(OCC(=O)N2CCN(Cc3ccc(F)cc3)CC2)cc1,"activity change, positive = activation",[1],"inactive: -20% [at 57.5 µM, percent change from vehicle, -100% = no light]"
Cc1ccc(C(C)(C)C)c(OCC(=O)Nc2ccc(Cl)cc2C(=O)c2ccccc2)c1,"activity change, positive = activation",[1],inactive: -1.99%
COc1ccc2c(c1)[C@]13CCCCC1C(C2)N(C)CC3 (stereo not given in full),"activity change, positive = activation",[1],inactive: -13.2%
COc1cccc(-n2c(/C=C\c3ccc(Cl)cc3)nc3ccccc3c2=O)c1,"activity change, positive = activation",[1],inactive: -14.1%
c1cnc2c(c1)ncn2C1CCNCC1,"activity change, positive = activation",[1],inactive: 2.03%
O=[N+]([O-])/N=C1\NCCN1Cc1ccc(Cl)nc1,"activity change, positive = activation",[1],inactive: -11.2%
CC(=O)OCC1=C(C(=O)O)N2C(=O)[C@@H](N)[C@H]2SC1,"activity change, positive = activation",[1],inactive: -0.567% [at 25.1 µM]
CCOP(=O)(OCC)C(C)NC(=O)N(CCCl)N=O (stereo not given),"activity change, positive = activation",[1],inactive: -4.7%
COC(=O)c1cncn1C(C)c1ccccc1 (stereo not given),"activity change, positive = activation",[1],inactive: -8.98%
C[C@H]1C(=O)O[C@@H]2CCN3CC=C(COC(=O)[C@](C)(O)[C@]1(C)O)[C@H]23,"activity change, positive = activation",[1],inactive: -13.5%
Cc1cccc(OCC(=O)N2CCN(Cc3cc(=O)n4nc(-c5ccccc5Cl)sc4n3)CC2)c1,"activity change, positive = activation",[1],"inactive: -7.21% [at 57.5 µM, percent change from vehicle, -100% = no light]"
Cc1ccccc1-c1nn2c(=O)cc(CN3CCN(C(=O)COc4ccccc4Cl)CC3)nc2s1,"activity change, positive = activation",[1],"inactive: -28.9% [at 57.5 µM, percent change from vehicle, -100% = no light]"
CN1C(=O)NC(=O)C(C)(C2=CCCCC2)C1=O (stereo not given),"activity change, positive = activation",[1],inactive: -5%
CC(CC(C(N)=O)(c1ccccc1)c1ccccc1)N(C)C (stereo not given),"activity change, positive = activation",[1],inactive: 2.75%
CN1C(=O)CN=C(c2ccccc2)c2cc([N+](=O)[O-])ccc21,"activity change, positive = activation",[1],inactive: -9.71%
Cc1ccc(-n2c(/C=C\c3ccc(F)c(F)c3)nc3ccccc3c2=O)c(C)c1,"activity change, positive = activation",[1],inactive: -32.3%
Cc1ccc(NC(=O)CN2C(=O)CN=C(c3ccccc3)c3ccccc32)cc1Cl,"activity change, positive = activation",[1],inactive: -36%
O=S(=O)(F)Cc1ccccc1,"activity change, positive = activation",[1],inactive: -0.242%
CCOc1ccccc1NC(=O)c1cccn(Cc2ccccc2C)c1=O,"activity change, positive = activation",[1],inactive: -21.2%
CCSc1nnc(NC(=O)c2cccn(Cc3ccccc3Cl)c2=O)s1,"activity change, positive = activation",[1],inactive: 34.4%
COc1ccc(C(c2c(O)c3ccccc3oc2=O)c2c(C)n(C)n(-c3ccccc3)c2=O)cc1 (stereo not given),"activity change, positive = activation",[1],inactive: -17.4%
N#Cc1cc2c(nc1SCC(=O)Nc1cccc(C(F)(F)F)c1)C1CCN2CC1,"activity change, positive = activation",[1],inactive: -47.1%
O=C1CN2CCOC2(c2ccccc2Cl)c2cc(Cl)ccc2N1 (stereo not given),"activity change, positive = activation",[1],inactive: -9%
Clc1ccc(CCC(Cn2ccnc2)Sc2c(Cl)cccc2Cl)cc1 (stereo not given),"activity change, positive = activation",at 57.5 µM (top of the series),inactive: -28.1%
same,"activity change, positive = activation","at 57.5 µM (top of the series), percent change from vehicle, -100% = no light",inactive: -35%
C[N+](C)(C)CCOC(=O)C(O)(c1ccccc1)c1ccccc1,"activity change, positive = activation",[1],inactive: -16.3%
CC(=O)c1cccc(NC(=O)c2cccn(Cc3cccc(C)c3)c2=O)c1,"activity change, positive = activation",[1],inactive: -16%
CCC(=O)C(CCN(C)C)(c1ccccc1)c1ccccc1,"activity change, positive = activation",[1],inactive: -2.29%
COC(=O)C(Cl)C(=O)OC,"activity change, positive = activation",[1],inactive: -11.4%
COc1ccc(NC(=O)CN2C(=O)C(C)N=C(c3ccccc3)c3ccccc32)cc1OC (stereo not given),"activity change, positive = activation",[1],"inactive: -5.39% [at 57.5 µM, percent change from vehicle, -100% = no light]"
CC(C)c1c(CN(C)C(C)Cc2ccccc2)n(C)n(-c2ccccc2)c1=O (stereo not given),"activity change, positive = activation",[1],inactive: 2.64%
Cc1ccc(Cn2cccc(C(=O)Nc3nc4ccc(C)cc4s3)c2=O)cc1,"activity change, positive = activation",[1],inactive: -20.4%
Oc1ccc(Cl)cc1,"activity change, positive = activation",[1],inactive: -2.28%
COc1ccc(C(=O)c2c(C)n(CCN3CCOCC3)c3cc(I)ccc23)cc1,"activity change, positive = activation",[1],inactive: -28.8%
Cc1ccc(OCC(=O)Nc2ccc(Cl)cc2C(=O)c2ccccc2)c(Br)c1,"activity change, positive = activation",[1],"inactive: -1.29% [at 57.5 µM, percent change from vehicle, -100% = no light]"
O=P1(NCCCl)OCCCN1CCCl (stereo not given),"activity change, positive = activation",[1],inactive: -1.73% and inactive: -14.6%
CCc1ccc(-n2nc(C)c3c2NC(=O)CSC3c2ccccc2C)cc1 (stereo not given),"activity change, positive = activation",[1],inactive: -36.7%
O=S(=O)(c1ccc(Cl)cc1)c1ccc(Cl)cc1,"activity change, positive = activation",[1],inactive: -13.7% [at 116 µM]
CC(C)NC(C)C,"activity change, positive = activation",[1],inactive: -0.938%
NC(=O)CN1CCCC1=O,"activity change, positive = activation",[1],inactive: -5.01%
O=c1[nH]c2ccccc2n1C1CCNCC1,"activity change, positive = activation",[1],inactive: -7.11%
ClCCN1CCCC1,"activity change, positive = activation",[1],inactive: -1.31%
N[C@@H](Cc1ccc(Oc2cc(I)c(O)c(I)c2)c(I)c1)C(=O)O,"activity change, positive = activation",[1],inactive: -13.2%
O=C(Oc1ccc([N+](=O)[O-])cc1)N1CCC(C(O)(c2ccc3c(c2)OCO3)c2ccc3c(c2)OCO3)CC1,"activity change, positive = activation",[1],inactive: -12.6%
CN1C(=O)COc2c(C(=O)NC3CN4CCC3CC4)cc(Cl)cc21 (stereo not given),"activity change, positive = activation",[1],inactive: -5.58% and inactive: 6.44%
O=C(Nc1ccc(F)c(Cl)c1)N(Cc1ccc2c(c1)OCO2)C1CCN(Cc2ccccc2)CC1,"activity change, positive = activation",[1],inactive: -22.2%
Cc1ccc(S(=O)(=O)N[C@@H](CCCCN)C(=O)CCl)cc1,"activity change, positive = activation",[1],inactive: -5.73%
O=C1CN=C(c2ccccc2)c2cc([N+](=O)[O-])ccc2N1,"activity change, positive = activation",[1],inactive: -8%
CCOc1ccc2nc(NC(=O)c3cccn(Cc4ccc(C)cc4)c3=O)sc2c1,"activity change, positive = activation",[1],inactive: -20.8%
O=C1CCC[C@@H]2[C@H]3CCCN4CCC[C@@H](CN12)[C@@H]34,"activity change, positive = activation",[1],inactive: -11.7%
Cc1cccc(C)c1NC1=NCCCS1,"activity change, positive = activation",[1],inactive: -7.36%
O=C(Nc1ccccc1)N(Cc1ccc2c(c1)OCO2)C1CCN(Cc2ccccc2)CC1,"activity change, positive = activation",[1],"inactive: -13.7% [at 57.5 µM, percent change from vehicle, -100% = no light]"
Nc1ccc(N)cc1,"activity change, positive = activation",[1],inactive: 8.1%
O=C(Nc1ccon1)c1cccn(Cc2cccc([N+](=O)[O-])c2)c1=O,"activity change, positive = activation",[1],inactive: -15.1%
CCOC(=O)C1(c2ccccc2)CCN(CCc2ccc(N)cc2)CC1,"activity change, positive = activation",[1],inactive: -8.14%
O=C(Nc1ccc2c(c1)OCO2)c1cccn(Cc2ccccc2)c1=O,"activity change, positive = activation",[1],inactive: 16.2%
COC(=O)c1ccccc1NC(=O)c1cccn(Cc2cccc(Cl)c2)c1=O,"activity change, positive = activation",[1],"inactive: -41% [at 57.5 µM, percent change from vehicle, -100% = no light]"
CCO/N=C(\CC)C1=C(O)CC(c2c(C)cc(C)cc2C)CC1=O (stereo not given),"activity change, positive = activation",[1],inactive: -10% [at 116 µM]
Clc1ccccc1C(c1ccccc1)(c1ccccc1)n1cccn1,"activity change, positive = activation",[1],inactive: -7.24%
CCc1ccc(C2CCNCC2)cc1,"activity change, positive = activation",[1],inactive: -3.07%
Clc1ccc(C(OCCN2CCCCC2)c2ccccc2)cc1 (stereo not given),"activity change, positive = activation",[1],inactive: -23.6%
